Results: article PMC12582325 (Proceedings of the National Academy of Sciences of the …, 2025)

Test system: F. oxysporum germ tubes
Details: 13 h

Compound	Effect on directional growth toward tomato root exudate (RE)	Effect on hyphal chemotropism toward Fo pheromone
CC(C)C[C@H](NC(=O)[C@H](CS)NC(=O)[C@@H](N)Cc1c[nH]c2ccccc12)C(=O)N[C@@H](Cc1c[nH]c2ccccc12)C(=O)N[C@@H](C)C(=O)NCC(=O)N[C@@H](CCC(N)=O)C(=O)N1CCC[C@H]1C(=O)N[C@@H](CS)C(=O)N[C@@H](Cc1c[nH]c2ccccc12)C(=O)O [A4] (H-WCLWAGQPCW-OH; N-terminus assumed)	invert directional growth	fully abolished
C[C@@H](O)[C@H](NC(=O)[C@H](CS)NC(=O)[C@@H](N)Cc1c[nH]c2ccccc12)C(=O)N[C@@H](Cc1c[nH]c2ccccc12)C(=O)N[C@@H](CCCNC(=N)N)C(=O)NCC(=O)N[C@@H](CCC(N)=O)C(=O)N1CCC[C@H]1C(=O)N[C@@H](CS)C(=O)N[C@@H](Cc1c[nH]c2ccccc12)C(=O)O [Fo] (H-WCTWRGQPCW-OH; N-terminus assumed)	invert directional growth	–
WRWPCCWGQT [Scrambled]	no significant effect	–

Where a SMILES comes first, the peptide text is derived from it.
